Source: the BET-seq Pho4 binding data (Le et al. 2018)
The other results are listed elsewhere or left out. The energies were worked out here from pooled read counts, against the library average; single values are noisy.

Target: T1, Pho4 (S. cerevisiae) (UniProt P07270)
T1 sequence: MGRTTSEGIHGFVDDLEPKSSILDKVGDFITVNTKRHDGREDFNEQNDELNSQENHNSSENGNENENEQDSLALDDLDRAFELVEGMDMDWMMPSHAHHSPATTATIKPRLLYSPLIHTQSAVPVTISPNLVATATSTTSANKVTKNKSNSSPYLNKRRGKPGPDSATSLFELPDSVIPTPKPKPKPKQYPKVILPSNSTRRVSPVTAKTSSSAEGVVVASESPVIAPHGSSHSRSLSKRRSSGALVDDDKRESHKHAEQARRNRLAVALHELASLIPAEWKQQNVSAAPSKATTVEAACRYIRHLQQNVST
Assay: relative binding free energy (BET-seq); higher = weaker binding
Conditions: reference: library average

Sequence | relative binding free energy [kcal/mol]
TTGGACACGTGACAGG | 0.12
GAATGCACGTGGTCGG | -0.12
GAGTACACGTGTGGGG | 0.17
GGGAGCACGTGTGATA | 0.1
ACATGCACGTGTTGGG | -0.04
AGTAACACGTGGGATG | -0.12
TGTTCCACGTGGGGTG | -0.03
TGTGCCACGTGCGTGA | -0.2
CGGGGCACGTGAGTCG | 0.09
AGTGGCACGTGTGGAT | 0
GCTATCACGTGTGAGG | 0.18
TGAATCACGTGAATGG | 0.25
TACTTCACGTGTAGTT | 0.23
TAGGTCACGTGCAGAT | 0.11
TTCTACACGTGCTGTT | 0.15
TGTTACACGTGTTATG | 0.12
TCGAGCACGTGGGGTA | -0.16
CGGGCCACGTGGGTGA | -0.26
GATGGCACGTGCGGCG | -0.16
AGTAACACGTGGGAAT | -0.03
TTGGCCACGTGGAATG | -0.04
GAAAGCACGTGGGTTT | -0.14
GGTCCCACGTGGGGGA | -0.32
GATAGCACGTGACGGG | 0.18
AGGGTCACGTGCGTCT | -0.06
CAGATCACGTGGTGTT | 0.05

Sequence | relative binding free energy [kcal/mol]
GTTGACACGTGATTGA | 0.11
CTTAACACGTGCGGGT | -0.01
GTGGTCACGTGGTTCT | 0.19
GTGCGCACGTGTTATT | -0.14
GGGGGCACGTGCAAAT | -0.06
GTGGGCACGTGTGAGG | -0.01
ACGGTCACGTGGGTTC | -0.02
CTTTACACGTGATAGT | 0.24
GGTGTCACGTGAATGG | 0.39
CTTTTCACGTGAGGTC | 0.42
CTGGCCACGTGGGTGA | -0.2
TTAGGCACGTGGATCA | -0.03
AGGACCACGTGGGGCG | -0.15
GCAAGCACGTGAGGTT | 0.28
TTAGTCACGTGATTGG | 0.36
GGGGGCACGTGGACTG | -0.03
TTAAACACGTGATTAT | 0.15
AGGTACACGTGGGTCG | 0.01
TTTCTCACGTGGTGTA | 0.11
CTCTGCACGTGGTGTT | -0.16
AGGGGCACGTGATCGT | -0.09
AAGTGCACGTGGAGTA | -0.11
TGTGTCACGTGGCTGT | -0.09
TGCTACACGTGAATGT | 0.4
GTAAACACGTGGTGGT | -0.01
GTTTGCACGTGCGATT | -0.06

Sequence | relative binding free energy [kcal/mol]
AGGTGCACGTGCTTCG | -0.12
TTCATCACGTGTTGTT | 0.16
GATTGCACGTGGAGAG | 0.18
CGTTTCACGTGGCAGG | 0.21
GCTGTCACGTGGATGA | 0.21
GGAGTCACGTGTAAAG | 0.26
ATTTTCACGTGTGAAA | 0.13
CGGATCACGTGTTAGT | 0.13
GAATGCACGTGTAGCG | 0.12
AGGTACACGTGGGCGC | -0.18
TATTACACGTGATGTC | 0.4
TTATCCACGTGTTTCT | 0.09
CGCAGCACGTGGTGGC | -0.01
AGGAACACGTGTGGGT | 0.14
TATAGCACGTGTGGTG | -0.12
TTTGCCACGTGTTGAC | 0.15
TAAGTCACGTGATAGG | 0.21
TTAACCACGTGGTATG | -0.1
TTATGCACGTGGGAGG | -0.04
GAGGGCACGTGGGAAT | 0.01
ATATACACGTGGTGCA | -0.05
TTGACCACGTGGGTTA | -0.17
TCGTACACGTGAGGGT | 0.31
TGGAGCACGTGCGTGC | -0.17
GAATGCACGTGTGGGC | 0.07
TTTAACACGTGGTACT | -0.02

Sequence | relative binding free energy [kcal/mol]
TGTTACACGTGGTGCC | 0.03
TACAACACGTGTTGGG | 0.04
TGTGACACGTGTAAAA | 0.3
TCTTGCACGTGTATGC | 0.03
AGTTACACGTGTCATT | 0.26
AAATTCACGTGAGTTT | 0.38
TTGTCCACGTGTTTTG | 0.08
ATTAGCACGTGTGGGA | 0.03
TGGGTCACGTGACTTC | 0.4
TTATGCACGTGTTCGG | -0.07
GTTAGCACGTGAAGGG | 0.36
TTTTTCACGTGGAAAT | 0.36
TTGATCACGTGGACGG | 0.11
TTGTACACGTGCGGTA | 0.04
GGGCGCACGTGGTGAA | -0.12
CGATGCACGTGAGGAT | 0.34
GGGTCCACGTGGTTGG | 0.01
CATGGCACGTGCAGTG | 0
AGGAGCACGTGTGTAG | -0.04
AGAAGCACGTGGTAGT | -0.11
GGTTGCACGTGGGCCT | -0.17
GGGGTCACGTGGCTCT | 0.05
TTGTTCACGTGAGCTA | 0.35
ATAGGCACGTGAGGCG | 0.07
ACTTGCACGTGTAGGG | -0.01
AGAGGCACGTGGGATA | -0.22

Sequence | relative binding free energy [kcal/mol]
AGATGCACGTGTGTTA | 0
TAGTCCACGTGAATGG | 0.3
ATTCTCACGTGGTCGT | 0.11
AGCTACACGTGGGGGA | -0.17
CGTGGCACGTGTGCAT | -0.11
TGCGACACGTGTGATG | 0.14
CGGGACACGTGTAGGA | 0.1
GCATTCACGTGGTATT | 0.23
TTGAGCACGTGAATTT | 0.32
TTGTGCACGTGAATCT | 0.19
TAGTGCACGTGTGAAG | -0.01
TGTGGCACGTGATGGG | 0.02
CTTTACACGTGGTTGA | 0.05
GAGGGCACGTGGTCCG | -0.19
TTGGGCACGTGTGTCT | -0.13
AGAGTCACGTGTGGCG | 0.17
TCAGTCACGTGAGTTA | 0.24
TGCAACACGTGAGGTT | 0.18
GTTACCACGTGTAATT | 0.29
AGTAGCACGTGAGGGG | 0.21
AGTGTCACGTGCATAG | -0.02
AGGGGCACGTGTTATA | -0.2
CAGCTCACGTGGGTGG | 0.05
GGGTTCACGTGGCGGC | 0.4
CTGGCCACGTGAGGTG | 0.18
TTAAACACGTGATTGG | -0.07

Sequence | relative binding free energy [kcal/mol]
AATTGCACGTGTGGCT | -0.05
CTGAGCACGTGTAGTT | 0.13
CGGTACACGTGTTTGG | 0.06
TGTTACACGTGGGGAC | -0.07
ATCAGCACGTGAGTTT | 0.21
GTCTTCACGTGGATTT | 0.2
TGTGCCACGTGCTGAG | -0.04
GGTGACACGTGCGTTT | -0.01
GGCTGCACGTGGTAGT | 0.02
ATAATCACGTGGGCTT | 0.13
GTGACCACGTGGTGGG | -0.1
TTGTTCACGTGCTAGG | 0.26
GCAGGCACGTGGGGCA | -0.26
GTTTCCACGTGGTTGA | -0.02
GATTTCACGTGCGGTG | 0.19
AGTTTCACGTGATGCT | 0.3
CTATGCACGTGGGGGG | -0.19
TTATTCACGTGCGTTT | 0.22
AAGTTCACGTGCTTGT | 0.2
GGTAGCACGTGGGCGT | -0.07
CGTGACACGTGGGGAA | -0.02
GTAACCACGTGGGTTG | -0.24
GGGGGCACGTGGATTG | -0.04
CTTATCACGTGTGGAG | 0.18
TGCGACACGTGGGGCA | -0.1
CGTATCACGTGGGCTG | 0.06

Sequence | relative binding free energy [kcal/mol]
TAGTACACGTGGGGTC | -0.05
TTTCTCACGTGTGAGC | 0.35
GGTAGCACGTGTGGGC | 0.01
GGATGCACGTGGTGGG | -0.01
GAGATCACGTGAGGTG | 0.35
GCTTACACGTGTTGTA | 0.13
TGAATCACGTGATGAT | 0.32
ATTTCCACGTGGGGTC | -0.04
TGAACCACGTGGGTGT | -0.13
TTTGGCACGTGAAGCG | 0.14
TAATTCACGTGGGGTC | 0.11
TTTGTCACGTGGATGA | 0.13
TATTTCACGTGTTTTA | 0.23
TATGACACGTGGGTAT | -0.24
TCAGGCACGTGATTTG | 0.18
TAAAGCACGTGGTGGT | -0.12
TGGTTCACGTGCGTTC | 0.18
CATGGCACGTGTAGGA | -0.15
TGGTCCACGTGGCGGC | -0.03
GGGTACACGTGAGGTA | 0.44
ATAGACACGTGAAGTG | 0.2
CGGGTCACGTGTTATG | 0.12
CGTGTCACGTGAGTAT | 0.27
AATGTCACGTGGGTAA | -0.07
TGTGGCACGTGGCATA | -0.26
GCTTACACGTGAGGGG | 0.26

Sequence | relative binding free energy [kcal/mol]
ATAAGCACGTGGGGAA | -0.21
AAAGTCACGTGGTTTA | 0.09
TTTTTCACGTGTTCGC | 0.43
AGGCGCACGTGAGCGT | 0.15
TAGTACACGTGTTGGC | 0.15
TCATGCACGTGGATTT | 0
AGTGGCACGTGAGTGG | 0.14
TTTGTCACGTGATATG | 0.16
AGGTGCACGTGAGTGC | 0.22
ATTTTCACGTGGCTAG | 0.42
GGTGACACGTGTTCGA | 0
TTAAGCACGTGGGGAC | -0.2
CTTTGCACGTGGGGAG | -0.15
TTTTACACGTGTCTGT | 0.14
GGTTTCACGTGGTTTT | 0.35
TAGTCCACGTGTGGCG | 0.1
AAGTGCACGTGCTGGA | -0.02
TAGATCACGTGAGGAT | 0.23
CGGTACACGTGTTCTT | 0.21
TGTGTCACGTGGGATG | 0.11
GTTGGCACGTGGGTGT | -0.05
ATAGACACGTGTAAGT | -0.03
AGAGGCACGTGCGCGG | -0.27
TGGGTCACGTGTATTA | 0.09
AATGCCACGTGATGGG | 0.08
GTCAACACGTGGTGGG | -0.05

Sequence | relative binding free energy [kcal/mol]
GGGGGCACGTGGAGGT | -0.06
TCGTTCACGTGCGTTT | 0.35
ATAGGCACGTGGACTG | -0.09
AAGTGCACGTGGGATA | 0.03
TGGGGCACGTGAGCGG | 0.11
ATTAACACGTGGTAAG | 0.03
GTATGCACGTGATTGG | 0.13
GGTAGCACGTGGATGG | 0.1
TTGGACACGTGGGGCG | -0.13
GGTTCCACGTGTGTAT | 0.12
TTGTGCACGTGTGGTC | 0.04
TTAATCACGTGTCGTG | 0.11
AACGTCACGTGTAATG | 0.39
GGGGTCACGTGTTGCT | 0.17
TCAGGCACGTGTGTGT | -0.08
TATATCACGTGTAAGA | 0.2
ACAGGCACGTGATGTT | 0
TGGGACACGTGTTGAG | 0.11
GTTTGCACGTGGGGGT | 0.06
AGATGCACGTGGGATT | -0.05
CTAGTCACGTGGTGAG | -0.01
GATGGCACGTGGCATT | -0.04
